# From publication PMC4336329 (PLoS ONE, 2015)
# The campaign covered roughly 310,000 compounds. About 2,200 (0.71%) showed an effect of 50% or more. Effects have a minus sign here. The list shows a part of the results.
# Biological target: human ether-à-go-go-related gene (hERG) potassium channel (human, UniProt Q12809)
# Experiment: primary screen, population patch clamp on CHO cells stably expressing hERG
# Sequence of human ether-à-go-go-related gene (hERG) potassium channel (Q12809 whole entry, looked up): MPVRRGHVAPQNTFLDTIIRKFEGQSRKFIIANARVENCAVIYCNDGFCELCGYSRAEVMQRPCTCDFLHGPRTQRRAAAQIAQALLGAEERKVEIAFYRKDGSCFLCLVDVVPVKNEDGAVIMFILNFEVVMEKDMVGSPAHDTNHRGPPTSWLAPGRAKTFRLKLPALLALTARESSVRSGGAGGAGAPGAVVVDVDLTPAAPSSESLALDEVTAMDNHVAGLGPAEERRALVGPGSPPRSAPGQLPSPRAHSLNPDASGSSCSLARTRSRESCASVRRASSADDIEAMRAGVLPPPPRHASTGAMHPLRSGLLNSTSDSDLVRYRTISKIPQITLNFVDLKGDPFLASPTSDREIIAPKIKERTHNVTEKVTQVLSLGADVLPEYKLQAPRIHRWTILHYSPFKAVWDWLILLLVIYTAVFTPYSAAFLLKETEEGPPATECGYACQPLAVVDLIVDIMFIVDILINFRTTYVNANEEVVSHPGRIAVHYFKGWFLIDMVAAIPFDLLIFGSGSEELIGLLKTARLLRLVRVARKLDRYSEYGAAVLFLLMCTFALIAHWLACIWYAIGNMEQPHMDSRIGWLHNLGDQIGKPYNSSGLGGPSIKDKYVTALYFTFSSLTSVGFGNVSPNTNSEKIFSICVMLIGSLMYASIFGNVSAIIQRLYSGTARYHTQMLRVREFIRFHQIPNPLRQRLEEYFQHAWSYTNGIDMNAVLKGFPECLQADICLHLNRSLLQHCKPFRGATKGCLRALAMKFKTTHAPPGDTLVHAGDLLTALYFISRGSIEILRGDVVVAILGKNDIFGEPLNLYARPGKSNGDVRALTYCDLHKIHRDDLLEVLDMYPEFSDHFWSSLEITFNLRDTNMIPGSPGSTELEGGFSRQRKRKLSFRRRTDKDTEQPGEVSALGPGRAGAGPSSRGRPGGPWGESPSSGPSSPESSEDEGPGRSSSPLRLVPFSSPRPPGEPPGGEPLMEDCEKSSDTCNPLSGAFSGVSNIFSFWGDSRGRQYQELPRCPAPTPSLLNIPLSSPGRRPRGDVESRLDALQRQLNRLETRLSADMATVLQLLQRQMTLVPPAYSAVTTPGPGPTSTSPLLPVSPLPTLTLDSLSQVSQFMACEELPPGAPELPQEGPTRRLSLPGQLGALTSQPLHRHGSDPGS
row,SMILES,"hERG current change (%, negative = inhibition) at 1uM [%]"
1,Cc1ccc(NC(=O)CC2S/C(=N/N=C/c3c[nH]c4ccccc34)NC2=O)cc1 (stereo not drawn),2.43
2,O=C(c1ccc(CNc2c(N3CCOCC3)c(=O)c2=O)cc1)N1CC=C(c2ccccc2)CC1,-0.317
3,C=CCN1C(=O)C(CC(=O)Nc2ccc(OCC)cc2)N(Cc2ccccn2)C1=S (stereo not drawn),3.06
4,CC1CCC(N2CCN(c3ncccn3)CC2)CC1 (stereo not drawn),4
5,COc1cc(Br)cc2cc(C(=O)N3CCCCC3C)c(=O)oc12 (stereo not drawn),15.7
6,Cn1/c(=N\NC(=O)C2CCCCC2)sc2ccccc21,16.7
7,CCC(=O)Nc1c2c(nn1-c1ccc(F)cc1)CS(=O)(=O)C2,10.5
8,N[C@@H](Cc1cc(I)c(Oc2cc(I)c(O)c(I)c2)c(I)c1)C(=O)O,11
9,Cc1occc1-c1nnc(SCC(=O)c2ccc(Cl)cc2)n1CC1CCCO1 (stereo not drawn),2.48
10,CC(C)CN(C(=O)CSc1nnc2c(Cl)cc(C(F)(F)F)cn12)C1CCS(=O)(=O)C1 (stereo not drawn),6.61
11,CCC(C)N(C(=O)COC(=O)c1cc([N+](=O)[O-])ccc1N1CCOCC1)C1CCS(=O)(=O)C1 (stereo not drawn),7.5
12,COc1ccccc1N1CCN(C(=O)c2ccc(-c3ccc(Cl)cc3)o2)CC1,10.2
13,O=C(CSc1nc2ccccc2c(=O)n1-c1ccc(Cl)cc1)N/N=C/C=C/c1ccccc1[N+](=O)[O-],-3.31
14,O=C(CN1CCN(C(=O)c2ccco2)CC1)N1CCc2[nH]c3ccccc3c2C1,6.07
15,CNS(=O)(=O)c1cccc(C(=O)OCC(=O)Nc2cc(F)ccc2F)c1,7.16
16,CC(C)(C)P(=O)(c1ccncc1)N1CCCC1 (stereo not drawn),6.77
17,O=C(c1cc2nc(-c3ccco3)cc(C(F)(F)F)n2n1)N1CCCc2ccccc21,16.9
18,O=C(COC(=O)c1c[nH]c(=O)[nH]c1=O)Nc1ccccc1,1.65
19,O=C1CC(N2CCN(c3nc4ccccc4s3)CC2)C(=O)N1c1ccc(F)cc1 (stereo not drawn),2
20,COc1ccc(CN=Cc2c(O)[nH]c3ccccc23)cc1,12.1
21,Cc1c(NC(=O)/C=C/c2cccs2)c(=O)n(-c2ccccc2)n1C,2.11
22,CCOC(=O)CN1CC23C=CC(O2)C(C(=O)Nc2ccc(OC)cc2OC)C3C1=O (stereo not drawn),11.4

row,SMILES,"hERG current change (%, negative = inhibition) at 1uM [%]"
1,COc1ccc(N2C(=O)C(Cc3ccccc3)NC2=S)cc1 (stereo not drawn),10.1
2,CCC(C(=O)NCCCN1CC(C)CC(C)C1)n1nc(C)c2sc3ccccc3c2c1=O (stereo not drawn),-6.74
3,O=C(NCc1ccc(F)cc1Cl)C1CCN(S(=O)(=O)N2CCC3(CC2)OCCO3)CC1,-3.06
4,CCN(CC)CCC(c1ccc(N(C)C)cc1)c1c(O)cc(OC)cc1OC (stereo not drawn),12.3
5,COc1cc(N2C(=O)CC(=O)NC2=O)cc(OC)c1OC,11.7
6,CCOC(=O)c1ccc(NC(=O)CSCCC(=O)O)cc1,10.3
7,COc1ccc(S(=O)(=O)N2CCCCCC2)cc1C(=O)Nc1cccc(C)n1,14.8
8,CCOC(=O)C1CCN(C(=O)COC(=O)c2nc3nc(C)cc(C)n3n2)CC1,3.29
9,CC(C)=CC(=O)O[C@@H]1Cc2cc3ccc(=O)oc3cc2OC1(C)C,12.1
10,CCN(CC)CCCN(CC(=O)N(C)Cc1ccccc1)C(=O)c1ccc([N+](=O)[O-])cc1.Cl.O,14.9
11,CCCC(C(=O)NCC1CCCO1)N(C(=O)CNS(=O)(=O)c1ccccc1)c1ccc(F)cc1 (stereo not drawn),13.7
12,COC(=O)C1(CCSC)NC(c2ccc(O)c(OC)c2)C2C(=O)N(c3ccc(C)cc3)C(=O)C21 (stereo not drawn),14.1
13,O=C(CCSCc1ccc(Cl)cc1)NCc1ccco1,7.89
14,O=C(Cc1ccc2c(c1)CCCC2)Nc1ccccc1Br,9.8
15,COc1ccc(-n2c(C)cc(C(=O)COC(=O)Cn3cnc4ccccc43)c2C)cc1,10
16,COc1ccccc1NC(=O)C(Sc1ccccc1)c1ccccc1 (stereo not drawn),-0.0801
17,C=CSc1sc(Cl)c(N(CC)CC)c1[N+](=O)[O-],9.51
18,O=C(Nc1nc(-c2ccccc2)cs1)c1ccccc1F,14.5
19,CSc1nccc(-c2cc(Cl)sc2Cl)n1,9.65
20,O=C(N/N=C/c1ccc2c(c1)OCO2)c1cccs1,9.32
21,CN(C)C/C=C(/c1ccc(Br)cc1)c1cccnc1.Cl,-60.8
22,Cc1cccc(Oc2nc(-c3cccc([N+](=O)[O-])c3)nc3ccccc23)c1C,-4.69

row,SMILES,"hERG current change (%, negative = inhibition) at 1uM [%]"
1,O=C(Nc1ccc2c(c1)OCO2)c1ccncc1,11.8
2,CSc1cccc(NC(=O)C2CCCN(S(=O)(=O)c3cccs3)C2)c1 (stereo not drawn),14.2
3,O=c1c2cnn(-c3ccccc3)c2nnn1/N=C/c1cccnc1,15.1
4,O=C(NCc1cccnc1)c1noc2c1CCCC2,1.27
5,CC1CC1c1ccc(/C=C(\C#N)C(=O)Nc2cc(Cl)ccc2Cl)o1 (stereo not drawn),14.6
6,COc1ccccc1S(=O)(=O)Nc1cc(S(=O)(=O)N2CCCCC2)ccc1N1CCOCC1,-1.32
7,CCOC(=O)C1CCN(c2ncnc3c2oc2ccc(Br)cc23)CC1,-2.55
8,O=C(NC1CCCCC1)c1cc2nc3c(c(C(F)(F)F)n2n1)CCCC3,-2.25
9,COc1ccccc1C(=O)NC(=O)CSc1nnc(N)s1,-0.326
10,Cc1nc(C(F)(F)F)ccc1C(=O)N1CCCCC1,17.5
11,CCOC(=O)c1cnn(-c2nc(-c3ccccc3F)cs2)c1C(F)(F)F,4.74
12,CCn1cnc2sc(C(=O)Oc3cccc(C)c3)c(C)c2c1=O,10.9
13,Oc1ccccc1C=NC(c1ccccc1)C(O)c1ccccc1 (stereo not drawn),2.05
14,Cc1ccc(C)c2[nH]c(=O)c(CCNC(=O)c3ccco3)cc12,10.5
15,O=C(NCc1cccs1)C1CCCN1S(=O)(=O)c1ccccc1F (stereo not drawn),-0.297
16,COc1ccc(S(=O)(=O)N2CCN(Cc3cc(OC)c(OC)c(OC)c3)CC2)cc1.O=C(O)C(=O)O,17.2
17,Cc1cc(C)nc(-n2nc(C)c(Oc3ccccc3O)c2C)n1,3.94
18,CN(CCCC(=O)NCc1ccc2c(c1)OCO2)S(=O)(=O)c1ccc([N+](=O)[O-])cc1,-10.9
19,CN(c1cnn(-c2ccccc2)c(=O)c1Cl)n1cccc1,8.82
20,Cc1ccc2c(c1)C(O)(CC(=O)/C=C/C=C/c1ccccc1)C(=O)N2 (stereo not drawn),16.2
21,O=C(NCc1ccc(Cl)cc1)C1CC(O)CN1S(=O)(=O)c1ccc(Cl)cc1 (stereo not drawn),11.6
22,O=C(Cn1cc(/C=N/NC(=O)c2ccccc2Br)c2ccccc21)Nc1ccc(F)cc1,11.4

row,SMILES,"hERG current change (%, negative = inhibition) at 1uM [%]"
1,CCSc1nnc(-c2ccc(S(=O)(=O)N3CCOCC3)cc2)n1C,12.5
2,Cc1ccccc1-c1nnn(Cc2ccc(F)cc2Cl)n1,7.2
3,I.OCCNC1=NCCN1,15.2
4,O=C(Nc1cccc(S(=O)(=O)N2CCCCC2)c1)c1ccc2ccccc2n1,0.162
5,COC(=O)c1cc(Br)ccc1NC(=O)Nc1ccccc1,5.24
6,CCOC(=O)C1=C(C)NC(C)=C(C(=O)OCC)C1C(=O)OCC(=O)c1ccc2c(c1)OCCO2,6.34
7,CCn1cc([N+](=O)[O-])c(C(=O)Nc2c(C)nn(Cc3cccc(F)c3)c2C)n1,15.8
8,O=C(CCNS(=O)(=O)c1ccc(Br)s1)NC1CCCC1,2.49
9,CCOc1ccc(CNC(=O)C2CCCN(S(=O)(=O)N3CC(C)CC(C)C3)C2)cc1OC (stereo not drawn),11.3
10,COCCCNC(=S)N1CCN(C(=O)c2ccco2)CC1,11.3
11,Cc1ccc(NC(=O)CCN2CCC(Cc3ccccc3)CC2)cc1,-17.4
12,CC(=O)OCC(=O)Nc1cc(S(=O)(=O)N2CCCCCC2)ccc1Cl,7.83
13,COc1ccc(NC(=O)CN2CCCC(C)C2)c([N+](=O)[O-])c1 (stereo not drawn),-2.14
14,CCOC(=O)N1CCC(N2C(=O)c3ccccc3C2Nc2cc(C)cc(C)c2)CC1 (stereo not drawn),-4.38
15,O=C(Nc1nc(-c2ccccn2)cs1)c1cccc(S(=O)(=O)N2CCOCC2)c1,1.18
16,CCc1nnc(NS(=O)(=O)c2ccc(NC(=O)c3ccc(Cl)cc3)cc2)s1,1.4
17,O=c1[nH]ncc(N/N=C\c2cccnc2)c1Cl,7.03
18,COc1ccccc1C(CC(=O)Nc1ccc(Cl)cc1)c1ccc(OC(C)C)cc1 (stereo not drawn),3.58
19,COc1ccc(NC(=O)CNC(=O)c2nn(-c3ccc(OC)cc3OC)c(=O)c3ccccc23)c(OC)c1,14.8
20,Nc1nnc(CCOc2ccc(Cl)cc2)s1,7.33
21,Cc1nc2cc(C(F)(F)F)ccc2n1C1CCN(CC(=O)NC(C)(C)C)CC1,4.12
